# Reference: the supplement of paper PMC8728848
# Some of the results follow.
# Key:
# Assay in all cases: glycan array binding signal (z-score within array); higher = stronger binding
# Details in all cases: glycan notation: IUPAC condensed, linker removed
# [1] = target: Fuc(a1-2)Gal(b1-4)GlcNAc(b1-3)Gal(b1-4)GlcNAc(b1-2)Man(a1-3)[Fuc(a1-2)Gal(b1-4)GlcNAc(b1-3)Gal(b1-4)GlcNAc(b1-2)Man(a1-6)]Man(b1-4)GlcNAc(b1-4)GlcNAc
# Summary of the method: (§1)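 Negative Z-scores can be read as non-binding. The Z-score is calculated within each array and then averaged across arrays of one protein sequence at different concentrations or buffers and across linkers. Arrays, 3228 in all, were curated from the Consortium for Functional Glycomics database and kept only where the protein sequence was available.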
# [2] = target: Fuc(a1-2)Gal(b1-4)GlcNAc(b1-3)Gal(b1-4)GlcNAc(b1-3)Gal(b1-4)GlcNAc
# Summary of the method: as §1
# [3] = target: Fuc(a1-2)Gal(b1-4)GlcNAc(b1-3)GalNAc
# Summary of the method: as §1
# [4] = target: Fuc(a1-2)Gal(b1-4)GlcNAc(b1-3)[Fuc(a1-2)Gal(b1-4)GlcNAc(b1-6)]GalNAc
# Summary of the method: as §1
# [5] = target: Fuc(a1-2)Gal(b1-4)GlcNAc(b1-3)[Fuc(a1-3)[Gal(b1-4)]GlcNAc(b1-6)]Gal(b1-4)Glc
# Summary of the method: as §1
# [6] = target: Fuc(a1-2)Gal(b1-4)GlcNAc(b1-6)GalNAc
# Summary of the method: as §1
# [7] = target: Fuc(a1-2)Gal(b1-4)GlcNAc6S
# Summary of the method: as §1
# [8] = target: Fuc(a1-2)Gal(b1-4)[Fuc(a1-3)]GlcNAc
# Summary of the method: as §1
# [9] = target: Fuc(a1-2)Gal(b1-4)[Fuc(a1-3)]GlcNAc(b1-2)Man(a1-3)[Fuc(a1-2)Gal(b1-4)[Fuc(a1-3)]GlcNAc(b1-2)Man(a1-6)]Man(b1-4)GlcNAc(b1-4)[Fuc(a1-6)]GlcNAc
# Summary of the method: as §1
# [10] = target: Fuc(a1-2)Gal(b1-4)[Fuc(a1-3)]GlcNAc(b1-2)[Fuc(a1-2)Gal(b1-4)[Fuc(a1-3)]GlcNAc(b1-4)]Man(a1-3)[Fuc(a1-2)Gal(b1-4)[Fuc(a1-3)]GlcNAc(b1-2)Man(a1-6)]Man(b1-4)GlcNAc(b1-4)GlcNAc
# Summary of the method: as §1
# [11] = target: Fuc(a1-2)Gal(b1-4)[Fuc(a1-3)]GlcNAc(b1-3)Gal(b1-4)[Fuc(a1-3)]GlcNAc
# Summary of the method: as §1
# [12] = target: Fuc(a1-2)Gal(b1-4)[Fuc(a1-3)]GlcNAc(b1-3)Gal(b1-4)[Fuc(a1-3)]GlcNAc(b1-3)Gal(b1-4)[Fuc(a1-3)]GlcNAc
# Summary of the method: as §1
# [13] = target: Fuc(a1-2)Gal(b1-4)[Fuc(a1-3)]GlcNAc(b1-3)GalNAc
# Summary of the method: as §1
# [14] = target: Fuc(a1-2)Gal(b1-4)[Fuc(a1-3)]GlcNAc(b1-3)[Neu5Ac(a2-6)Gal(b1-4)GlcNAc(b1-6)]Gal(b1-4)Glc
# Summary of the method: as §1
# [15] = target: Fuc(a1-2)Gal3S(b1-4)GlcNAc
# Summary of the method: as §1
# [16] = target: Fuc(a1-2)Gal6S(b1-3)GlcNAc
# Summary of the method: as §1
# [17] = target: Fuc(a1-2)Gal6S(b1-3)GlcNAc6S
# Summary of the method: as §1
# Fuc(a1-2)Gal6S(b1-4)Glc = target: Fuc(a1-2)Gal6S(b1-4)Glc
# Summary of the method: as §1
# [18] = target: Fuc(a1-2)Gal6S(b1-4)Glc6S
# Summary of the method: as §1
# Fuc(a1-2)[Gal(a1-3)]Gal = target: Fuc(a1-2)[Gal(a1-3)]Gal
# Summary of the method: as §1
# [19] = target: Fuc(a1-2)[Gal(a1-3)]Gal(b1-3)GalNAc
# Summary of the method: as §1
# [20] = target: Fuc(a1-2)[Gal(a1-3)]Gal(b1-3)GalNAc(b1-3)Gal(a1-4)Gal(b1-4)Glc
# Summary of the method: as §1
# [21] = target: Fuc(a1-2)[Gal(a1-3)]Gal(b1-3)GlcNAc
# Summary of the method: as §1
# [22] = target: Fuc(a1-2)[Gal(a1-3)]Gal(b1-3)GlcNAc(b1-2)Man(a1-3)[Fuc(a1-2)[Gal(a1-3)]Gal(b1-3)GlcNAc(b1-2)Man(a1-6)]Man(b1-4)GlcNAc(b1-4)GlcNAc
# Summary of the method: as §1
# [23] = target: Fuc(a1-2)[Gal(a1-3)]Gal(b1-3)GlcNAc(b1-2)Man(a1-3)[Fuc(a1-2)[Gal(a1-3)]Gal(b1-3)GlcNAc(b1-2)Man(a1-6)]Man(b1-4)GlcNAc(b1-4)[Fuc(a1-6)]GlcNAc
# Summary of the method: as §1
# [24] = target: Fuc(a1-2)[Gal(a1-3)]Gal(b1-3)GlcNAc(b1-3)GalNAc
# Summary of the method: as §1
# [25] = target: Fuc(a1-2)[Gal(a1-3)]Gal(b1-3)GlcNAc(b1-6)GalNAc
# Summary of the method: as §1
# [26] = target: Fuc(a1-2)[Gal(a1-3)]Gal(b1-4)Glc
# Summary of the method: as §1
# [27] = target: Fuc(a1-2)[Gal(a1-3)]Gal(b1-4)GlcNAc
# Summary of the method: as §1
# [28] = target: Fuc(a1-2)[Gal(a1-3)]Gal(b1-4)GlcNAc(b1-2)Man
# Summary of the method: as §1
binder,measurement,setting,value
CTAEGIKKFEGDGYELFKDNFPAGEKFDNDDTNDQFYTVIF [MUB40 (Lactobacillus reuteri)],glycan array binding signal (z-score),[1],0.648
same,glycan array binding signal (z-score),[2],-0.491
same,glycan array binding signal (z-score),[3],0.7
same,glycan array binding signal (z-score),[4],-0.357
same,glycan array binding signal (z-score),[5],-0.453
same,glycan array binding signal (z-score),[6],-0.677
same,glycan array binding signal (z-score),[7],-0.389
same,glycan array binding signal (z-score),[8],-0.174
same,glycan array binding signal (z-score),[9],0.237
same,glycan array binding signal (z-score),[10],-0.447
same,glycan array binding signal (z-score),[11],-0.174
same,glycan array binding signal (z-score),[12],-0.597
same,glycan array binding signal (z-score),[13],3.56
same,glycan array binding signal (z-score),[14],-0.177
same,glycan array binding signal (z-score),[15],-0.186
same,glycan array binding signal (z-score),[16],-0.043
same,glycan array binding signal (z-score),[17],-0.196
same,glycan array binding signal (z-score),Fuc(a1-2)Gal6S(b1-4)Glc,0.324
same,glycan array binding signal (z-score),[18],0.134
same,glycan array binding signal (z-score),Fuc(a1-2)[Gal(a1-3)]Gal,-0.257
same,glycan array binding signal (z-score),[19],-0.373
same,glycan array binding signal (z-score),[20],-0.285
same,glycan array binding signal (z-score),[21],-0.002
same,glycan array binding signal (z-score),[22],-0.107
same,glycan array binding signal (z-score),[23],-0.469
same,glycan array binding signal (z-score),[24],-0.166
same,glycan array binding signal (z-score),[25],0.264
same,glycan array binding signal (z-score),[26],-0.405
same,glycan array binding signal (z-score),[27],-0.203
same,glycan array binding signal (z-score),[28],2.44
